Laboratory results reported in patent US10689423B2, “CTLA4-binding protein peptide-linker masks” (City of Hope, priority 2015, dated 2020).

Assays:
CTLA-4 = assay: Size-exclusion chromatography analysis of CTLA-4 binding to mLcn2-Fc constructs; settings: for SEC elution volume of construct incubated with CTLA-4: Superdex 200, apo CTLA-4 13.0 mL, apo constructs ~12.7 mL
[1] = target: T1, Monomeric extracellular CTLA-4 (Homo sapiens, UniProt P16410); assay: SPR of masked, unmasked and unmodified mLcn2-Fc on immobilized monomeric CTLA-4; assay type: binding; settings: monomeric CTLA-4 tethered to the chip
T1 construct: Monomeric extracellular CTLA-4 was immobilized at low density on a CM5 chip
T1 sequence (P16410 36-161 limits assumed): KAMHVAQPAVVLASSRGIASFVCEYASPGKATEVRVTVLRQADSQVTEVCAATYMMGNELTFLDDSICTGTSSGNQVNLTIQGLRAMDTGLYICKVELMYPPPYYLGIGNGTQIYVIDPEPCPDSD
Source text: (§1) FIG. 3A-3D: Design and activation of covalently masked mLcn2-Fc in vitro. FIG. 3A is cartoon of MMP9 substrate-containing linker (Masked) and uncleavable linker Mxx9; protease substrate sequences in red box. Sequence legend: GGSVPLSLYSGG (SEQ ID NO:46); GGSVPGSGSSGG (SEQ ID NO:47). […] FIG. 3C is a graph of SPR of masked, MMP9-treated unmasked, and unmodified mLcn2-Fc binding to CTLA-4: Top: Sensorgram of unmodified (blue), MMP9-treated unmasked (green), and masked mLCN2-Fc (red) analytes at concentration of 3000 nM. Bottom: Sensorgrams of masked (left) and unmasked mLcn2-Fc (right) analytes at concentrations of 3000; 1000; 300; 100; and 30 nM. FIG. 3D is a graph of flow cytometric analysis of mLcn2-Fc constructs binding to mouse T lymphocytes. […] Regulatory T cells were gated and analyzed. P values based on quadruplicate analyses were calculated against neg. control (AF647).
FIG. 8A-8D: Design and activation of masked mLcn2-Fc in vitro. […] Alexa Fluor 647-labeled unmodified, masked, and unmasked mLcn2-Fc were incubated with splenocytes from Foxp3gfp/KI DBA/2 mice and analyzed via flow cytometry. Regulatory T-cells were isolated by forward and side scatters, DAPI− staining, and GFP+ fluorescence. Four experiments on two murine spleens were performed and the averages were calculated±s.d. P values were calculated for the difference in AF647 staining. […]

[2] = tested on: murine regulatory T-cells; assay: Flow cytometry of AF647-labeled mLcn2-Fc constructs binding to murine regulatory T-cells; assay type: cell-based; settings: splenocytes from Foxp3gfp/KI DBA/2 mice; P=0.004 vs unmodified, P=0.003 vs unmasked mLcn2-Fc
Source text: as §1
FIG. 8A-8D: Design and activation of masked mLcn2-Fc in vitro. […] Alexa Fluor 647-labeled unmodified, masked, and unmasked mLcn2-Fc were incubated with splenocytes from Foxp3gfp/KI DBA/2 mice and analyzed via flow cytometry. Regulatory T-cells were isolated by forward and side scatters, DAPI− staining, and GFP+ fluorescence. Four experiments on two murine spleens were performed and the averages were calculated±s.d. P values were calculated for the difference in AF647 staining.

[3] = tested on: human CTLA4-Fc on Tni insect cells; assay: Flow cytometry of Tni insect cells transiently expressing human CTLA4-Fc; assay type: cell-based; settings: Alexa Fluor-647 conjugated variants
Source text: FIG. 10C: Flow cytometry analysis of Tni insect cells induced to transiently express human CTLA4-Fc. Cells were stained with Alexa Fluor-647 conjugated mLcn2-Fc variants and gated for Forward scatter/Side scatter, DAPI^−, singlet size (pulse width), and APC. Uninfected cells stained with mLcn2-Fc are shown in grey as a negative control.

[4] = tested on: tumor-infiltrating lymphocytes (TILs) in B16 tumor tissues; assay: In vivo detection of mLcn2 variants in B16 tumor tissues (IHC); settings: i.v. 100 μg, melanoma-bearing mice, tumor samples 72 hr post-dose
Procedure: FIG. 4: In vivo detection of mLcn2 variants (CTLA-4 binding protein variants) in B16 tumor tissues.
(§2) FIG. 9: Biodistribution of mLcn2-Fc constructs in vivo. (A-C) Naïve mice were injected i.v. with 100 μg of indicated mLcn2-Fc construct and tissue samples were collected 48 hr. post-dose. Cryosections were stained for CD4 or CD8 (medium gray) and human IgG (light gray) from the thymus (A), spleen (B), and pituitary gland (C, IgG only). (D) Melanoma-bearing mice were injected as above and tumor samples were collected 72 hr. post-dose. 4′,6-diamidino-2-phenylindole (DAPI) nuclear staining shown in dark gray.
FIG. 17: Melanoma-bearing mice were injected i.v. with 100 μg of indicated mLcn2-Fc construct and tumor samples were collected 72 hr. post-dose. Cryosections were stained for CD4 or CD8 (medium gray) and human IgG (light gray). […] 4′,6-diamidino-2-phenylindole (DAPI) nuclear staining shown in dark gray.
(§3) In these experiments constructs were injected i.v. into C57/B16 mice bearing B16 melanomas. Three days after injection, tumor and tissue samples were collected and doublestained using antibodies recognizing either CD4 or CD8 and mLcn2 (e.g. human IgG-Fc). Membranes of both intratumoral CD4+ and CD8+ T cells were decorated with mLcn2 which was not detected on other cell types.

pituicytes = assay: In vivo binding of mLcn2 variants to cells within the pituitary gland; settings: naïve mice, i.v. 100 μg, 48 hr post-dose, human IgG staining
Procedure: FIG. 5: Binding of CTLA-4 antagonist mLcn2 variants to cells within the pituitary gland.
as §2
FIG. 18: Naïve mice were injected i.v. with 100 μg of indicated mLcn2-Fc construct and tissue samples were collected 48 hr. post-dose. Cryosections were stained for human IgG (light gray).
as §3

[5] = tested on: CD4/CD8 negative cells in the spleen; assay: In vivo binding of mLcn2 constructs in the spleen; design: species or system mice; settings: not shown; potentially due to FcR binding
Procedure: as §2
FIG. 16: Naïve mice were injected i.v. with 100 μg of indicated mtLCN2-Fc construct and tissue samples were collected 48 hr. post-dose. Cryosections were stained for CD4 or CD8 (medium gray) and human IgG (light gray) from the spleen.
as §3

masking of CTLA-4 binding (SPR) [1] | Molecule | SEC elution volume of construct incubated with CTLA-4 (CTLA-4) [mL] | SEC elution of admixture with CTLA-4-Fc (CTLA-4; in the absence of MMP9) | SEC elution of admixture with CTLA-4-Fc (CTLA-4; incubation with MMP9) | binding to regulatory T-cells (AF647 staining) [2] | binding to CTLA4-Fc expressing Tni cells [3] | staining of CD4 or CD8 TILs in tumor [4] | binding to pituitary gland cells (pituicytes) | binding in the spleen [5] | staining of CD4 or CD8 TILs in tumor ([4]; listed as noncleavable masked mLcn2)
effectively occludes CTLA-4 | Masked mLcn2-Fc: peptide 16 fused via MMP9-cleavable linker to N-terminus of mLcn2, fused to IgG1 Fc; SEQ ID NO:21 (protein, listed as Homo sapiens) AGSCWSPLPFMCGGSVPLSLYSGSQDSTSDLIPAPPLSKVPLQQNFQDNQFHGKWYVVGLAGNRILRDDQHPMNMYATIYELKEDKSYNVTSVISSHKKCEYTIATFVPGSQPGEFTLGNIKSYGDKTSYLVRVVSTDYNQYAVVFFKLAEDNAEFFAITIYGRTKELASELKENFIRFSKSLGLPENHIVFPVPIDQCIDGSRSGGTSGGGSVPGSGSSGSTSGSGKSSEGSGQ[human IgG1 Fc and a few adjoining residues cut from this listing] | 12.85 | eluted at the same position as the individual components | earlier elution, indicating the formation of a heterodimeric complex | significantly reduced binding to cells | limited binding | membrane staining of tumor-infiltrating lymphocytes (TILs) | did not bind to normal tissue constituents | bound to CD4/CD8 negative cells in the spleen | –
– | Mxx9 mLcn2-Fc: masked mLcn2-Fc with inactive MMP9 cleavage site (negative control), SEQ ID NO:22 (protein, listed as Homo sapiens) AGSCWSPLPFMCGGSVPGSGSSGSQDSTSDLIPAPPLSKVPLQQNFQDNQFHGKWYVVGLAGNRILRDDQHPMNMYATIYELKEDKSYNVTSVISSHKKCEYTIATFVPGSQPGEFTLGNIKSYGDKTSYLVRVVSTDYNQYAVVFFKLAEDNAEFFAITIYGRTKELASELKENFIRFSKSLGLPENHIVFPVPIDQCIDGSRSGGTSGGGSVPGSGSSGSTSGSGKSSEGSGQ[human IgG1 Fc and a few adjoining residues cut from this listing] | 12.85 | – | No shift | – | – | no reactivity | – | – | weak or no reactivity
